# From PubChem BioAssay AID1476 (National Center for Advancing Translational Sciences (NCATS), 2009)
# Where “and” joins values, the source holds several entries; their conditions need not be identical. Equal entries are not always repeated. The campaign covered roughly 200,000 compounds. About 4,500 (2.2%) were called active. The inconclusive results got no clear call from the source; some entries with a clear call stand among them for comparison. The call rests on the fitted dose curve; in most records, active means well fitted inhibition curve with a large enough effect; inconclusive means small, poorly fitted or top-dose-only effect, or effect the other way; inactive means flat fitted curve, though single readings scatter. Potencies beside an inconclusive call are fits to weak or partial responses and may not hold up.
# Target: Cruzipain (Trypanosoma cruzi) (UniProt P25779)
# Sequence of UniProt P25779 (P25779 whole entry, looked up): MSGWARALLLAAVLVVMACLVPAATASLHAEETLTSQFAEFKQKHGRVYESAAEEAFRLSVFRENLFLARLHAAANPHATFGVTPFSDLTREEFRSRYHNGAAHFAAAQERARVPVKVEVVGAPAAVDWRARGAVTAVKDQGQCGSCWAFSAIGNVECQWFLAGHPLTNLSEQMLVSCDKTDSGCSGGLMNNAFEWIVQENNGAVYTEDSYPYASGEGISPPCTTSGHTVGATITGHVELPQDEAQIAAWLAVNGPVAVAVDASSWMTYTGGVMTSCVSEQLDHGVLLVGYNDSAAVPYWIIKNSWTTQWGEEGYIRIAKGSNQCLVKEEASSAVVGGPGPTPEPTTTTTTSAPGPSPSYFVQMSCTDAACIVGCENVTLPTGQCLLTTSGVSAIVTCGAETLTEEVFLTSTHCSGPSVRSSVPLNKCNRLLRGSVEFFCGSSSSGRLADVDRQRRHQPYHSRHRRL
# Test: qHTS Assay for Promiscuous and Specific Inhibitors of Cruzain (without detergent); further: nearly all actives have a fitted effect of over 40% in size;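 on max response, negative = inhibition: plate controls were enzyme without inhibitor for no effect and buffer without enzyme for full effect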
# Conditions: purified cruzain, Z-FR-AMC fluorescence, no detergent
# How it was run: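 Purified cruzain at 1.5 nM, pre-incubated 15 min with compound at room temperature in 100 mM sodium acetate pH 5.5, 5 mM DTT, 0.00005% Triton X-100. Reaction started with 2 uM Z-FR-AMC; AMC fluorescence increase over 60 s gives rate.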
# Potency means the concentration at half of the fitted maximal effect; tags describe the fitted curve by direction and shape.
SMILES,Potency,"max response, negative = inhibition"
O=C(Nc1nc2n(n1)C(c1ccccc1)CC(c1ccc(Cl)cc1)N2)c1ccco1 (configuration not stated),"inconclusive: 39.8 µM [activator, single point]",
COc1ccc(C)cc1NC(=O)c1c(C)oc2ncn(CC(C)C)c(=O)c12,"inconclusive: 39.8 µM [activator, single point]",
CCOC(=O)c1ccc(N2C(=O)c3n[nH]c(-c4ccco4)c3C2c2ccc(O)cc2)cc1 (configuration not stated),"inconclusive: 25.1 µM [inhibitor, single point]",
O=C(NNC(=O)c1cc(-c2ccc(Cl)cc2Cl)nc2ccccc12)Nc1ccccc1,"inconclusive: 39.8 µM [inhibitor, single point]",
CCCCCOc1c(Cl)cc(C(=O)N(Cc2ccc(C)o2)C2CCS(=O)(=O)C2)cc1Cl (configuration not stated),"inconclusive: 12.6 µM [activator, partial curve]",
CCOC(=O)CCNC(=O)Nc1ccc2nc(C)n(Cc3ccc(Cl)cc3)c(=O)c2c1,"inconclusive: 31.6 µM [activator, single point]",
COc1ccc(C)c2sc(N(Cc3cccnc3)C(=O)C3CCCCC3)nc12,"inconclusive: 31.6 µM [activator, single point]",
O=C(c1ccc(Cl)c(S(=O)(=O)N2CCc3ccccc3C2)c1)N1CCN(c2ccccc2)CC1,"inconclusive: 31.6 µM [inhibitor, single point]",
CCn1c(NC(=S)Nc2ccccc2)nc2ccccc21,active: 25.1 µM,
Cc1ccc(C)c(NC(NC(=O)c2cccnc2)C(Cl)(Cl)Cl)c1 (configuration not stated),"inconclusive: 31.6 µM [inhibitor, single point]",
O=S(=O)(c1ccccc1)N1CCC2(CC1)CN(c1ccccc1)C2,"inconclusive: 25.1 µM [inhibitor, partial curve]",
CC(NC(=S)Nc1ccc(S(N)(=O)=O)cc1)c1ccc2c(c1)OCO2 (configuration not stated),,inactive: -22.3%
CCCC(C)NC(=O)COc1ccc(S(=O)(=O)c2ccc(OCC(=O)NC(C)CCC)cc2)cc1 (configuration not stated),"inconclusive: 31.6 µM [activator, partial curve]",
COc1ccc(N(CC(=O)Nc2cccc(Cl)c2C)S(=O)(=O)c2c(C)nn(C)c2C)cc1,"inconclusive: 39.8 µM [activator, single point]",
Cc1ccccc1NC(=O)Cn1c(=O)oc2cc(Br)ccc21,,inactive: 15.5%
COc1ccccc1-c1nc2c(c(SCC(=O)Nc3ccc(C)c(C)c3)n1)Cc1c(CO)cnc(C)c1O2,"inconclusive: 39.8 µM [activator, single point]",
C/C(=N/NC(=O)c1ccco1)c1ccc(NC(=O)c2ccc(F)cc2)cc1,"inconclusive: 31.6 µM [inhibitor, single point]",
CC1=Nc2cc(C(=O)NCc3ccccc3Cl)ccc2Sc2c(C)ccc(C)c21,active: 31.6 µM,
O=C(Nc1ccn(Cc2c(F)c(F)cc(F)c2F)n1)c1ccc(COc2ccc(Cl)cc2Cl)o1,"inconclusive: 31.6 µM [inhibitor, single point]",

SMILES,Potency,"max response, negative = inhibition"
Cc1ccc(NC(=O)COC(=O)CCC(=O)c2ccc(Cl)cc2)cc1S(=O)(=O)N(C)C,"inconclusive: 39.8 µM [activator, single point]",
COc1cc(/C=N/NC(=O)CN(CCc2ccccc2)S(=O)(=O)c2ccc(NC(C)=O)cc2)cc(OC)c1OC,"inconclusive: 31.6 µM [activator, single point]",
Cc1ccc(-c2nnc(Nc3cccc(Cl)c3)c3ccccc23)cc1S(=O)(=O)N1CCCCC1,active: 7.94 µM,
Cc1ccc(C)c(N2CCN(S(=O)(=O)c3cc(-c4cc(C)no4)ccc3C)CC2)c1,"inconclusive: 12.6 µM [inhibitor, partial curve]",
COc1ccc(-c2nnc(SCC(=O)NCCc3ccc(OC)c(OC)c3)nc2-c2ccc(OC)cc2)cc1,"inconclusive: 31.6 µM [activator, single point]",
Cc1nc2cccnc2n1-c1cccc(C(=O)N2CCN(c3cccc(Cl)c3)CC2)c1,"inconclusive: 39.8 µM [activator, single point]",
Cc1cc(NC(=O)c2ccc(COc3ccc(Cl)c(C)c3)o2)no1,active: 25.1 µM,
CC(=O)NS(=O)(=O)c1ccc(N=c2ssc3c2-c2cc(C)c(C)cc2NC3(C)C)cc1,"inconclusive: 39.8 µM [activator, single point]",
Cc1ccc(C)c(N2CCN(C(=O)C3CCCN(S(=O)(=O)c4c(C)noc4C)C3)CC2)c1 (configuration not stated),"inconclusive: 25.1 µM [activator, partial curve]",
COc1cc(CCC(=O)NCc2ccc3c(c2)CCN3C(=O)c2ccccc2)cc(OC)c1OC,"inconclusive: 25.1 µM [activator, single point]",
CC(=O)c1ccc(N2CCN(C(=O)C3CCCN(S(=O)(=O)c4ccc(Br)s4)C3)CC2)cc1 (configuration not stated),"inconclusive: 15.8 µM [inhibitor, partial curve]",
CCCOc1ccc(-c2nnn(CC(=O)c3c[nH]c4ccccc34)n2)cc1,active: 7.94 µM,
Cc1cc2cc(C)c3nnc(SCC(=O)Nc4ccc(S(=O)(=O)N5CCCCC5C)cc4)n3c2cc1C (configuration not stated),"inconclusive: 5.01 µM [activator, single point]",
CC(=O)Nc1ccc(S(=O)(=O)N2CCSC2c2ccc(C)cc2)cc1 (configuration not stated),"inconclusive: 31.6 µM [activator, single point]",
O=C(CCSc1nc(-c2ccco2)cc(C(F)(F)F)n1)NCCc1ccccc1,"inconclusive: 39.8 µM [activator, single point]",
O=C(c1ccc(Cn2c(=O)[nH]c3ccccc3c2=O)cc1)N1CCN(c2ccc(Cl)cc2)CC1,"inconclusive: 39.8 µM [inhibitor, single point]",
CCc1ccc(CNC(=O)c2nn(-c3ccc(C)cc3)c(=O)c3c2c2ccccc2n3C)cc1,"inconclusive: 1.26 µM [activator, single point]",
O=C(CCCC(=O)N(c1ccc2c(c1)OCCO2)C(C(=O)NC1CCCCC1)c1ccc(F)cc1)Nc1ccccn1 (configuration not stated),"inconclusive: 7.94 µM [activator, full curve]",
CC(C)NC(=O)N1CCC2(CC1)CCN(C(=O)c1cc(C(F)(F)F)cc(C(F)(F)F)c1)CC2,"inconclusive: 31.6 µM [activator, partial curve]",

SMILES,Potency,"max response, negative = inhibition"
CCN(C(=O)Cn1nnc2sc3c(c2c1=O)CCC(C(C)(C)C)C3)c1cccc(C)c1 (configuration not stated),,inactive: -3.88%
O=C(NCc1ccccc1)C(=O)Nc1nc(C23CC4CC(CC(C4)C2)C3)cs1,"inconclusive: 39.8 µM [inhibitor, single point]",
Cc1nc2c(-c3ccc(F)cc3)c(C)nn2c(C)c1CCC(=O)N1CCN(c2ccccc2)CC1,"inconclusive: 20 µM [activator, partial curve] and inconclusive: 3.98 µM [activator, single point]",
COc1ccc(CNC(=O)Cn2c(=O)nc(-c3ccccc3)c3ccccc32)cc1OC,,inactive: -3.85%
CCN(CCCNC(=O)C1CCC(=O)N1Cc1ccc(C)cc1)c1cccc(C)c1 (configuration not stated),"inconclusive: 39.8 µM [activator, single point]",
O=C(NCCC1=CCCCC1)c1ccc2c(c1)N(Cc1cccc(Cl)c1)C(=O)c1ccccc1S2=O (configuration not stated),active: 12.6 µM,
O=C(NCc1ccco1)c1ccc2c(=O)n(CCC3=CCCCC3)c(=O)[nH]c2c1,active: 15.8 µM,
C=C1C([C@@]2(C)C(OC(C)=O)CC(=O)O[C@@](C)(COC(C)=O)C2CC(=O)OC)C(OC=O)C(OC(=O)C(OC(C)=O)C(C)CC)[C@]2(C)C(c3ccoc3)CC(=O)C12O (some centres not stated),"inconclusive: 25.1 µM [activator, partial curve]",
CCOC(=O)c1cc2c(=O)n3ccccc3nc2n(CCOC)c1=NC(=O)c1c(-c2ccccc2Cl)noc1C,,inactive: -0.0995%
CC1CCc2nc3sc4c(c3c(N)c2C1)CCCC4 (configuration not stated),"inconclusive: 31.6 µM [inhibitor, single point]",
Cc1c(NC(=O)c2ccc(-c3cccc([N+](=O)[O-])c3)o2)cccc1-c1nc2cc(Cl)ccc2o1,active: 3.16 µM,
COc1ccc(-c2nn(-c3ccccc3)cc2C2CC(c3cccs3)=NN2C(=O)CCCC(=O)O)cc1 (configuration not stated),"inconclusive: 25.1 µM [activator, partial curve]",
COc1cccc(-n2c(=O)c3sc4ccccc4c3n(CC(=O)NC3CCCCC3)c2=O)c1,"inconclusive: 1 µM [activator, partial curve]",
Cc1c(C(=O)Nc2cccc(C(F)(F)F)c2)oc2ccc3c(c12)C(=O)CC(C)(C)O3,,inactive: 7.78%
CCc1ccc(S(=O)(=O)Nc2cc3c(C(=O)OCc4ccccc4)c(C)oc3c3ccccc23)cc1,"inconclusive: 3.98 µM [inhibitor, single point]",
COC(=O)[C@@]1(Cc2ccc(F)cc2)[C@H]2c3cc(C(=O)N4CCCC4)n(Cc4cc(C)n(C)n4)c3C[C@H]2CN1C(=O)c1ccccc1,"inconclusive: 10 µM [activator, partial curve]",
CCOc1ccccc1-c1cc(C(=O)N/N=C/c2ccc(O)c(OC)c2)c2ccccc2n1,"inconclusive: 39.8 µM [activator, single point]",
COc1ccccc1C(=O)Nc1cccc(C(=O)OCc2cc(=O)n3cc(C)sc3n2)c1,,inactive: 19%
Cc1ccc(NC(=O)COC(=O)/C(=C/c2cccs2)c2cccs2)cc1S(=O)(=O)N(C)C,"inconclusive: 25.1 µM [inhibitor, single point]",
